Reference: PubChem BioAssay AID1963576 (National Center for Advancing Translational Sciences (NCATS), 2024)
The whole screen tested about 46,000 compounds, of which about 60 (0.1%) were called active. About 3% were inconclusive and are not listed. The call rests on the fitted dose curve; in most records, active means well fitted inhibition curve with a large enough effect; inconclusive means small, poorly fitted or top-dose-only effect; inactive means no such curve, though single readings can be large or run the other way. This is one part of the list.

Assay: Primary qHTS assay for Inhibitors of ovarian cancer metastasis using an organotypic tumor microenvironment (TME) model. Further: nearly all actives have a fitted effect of over 65% in size.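 On activity change, negative = inhibition: plate controls were DMSO wells for no effect and tomatine positive control wells for full effect.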
Conditions: SKOV3ip1-GFP adhesion/invasion on 3D omental model, fluorescence; series mostly up to 45.8 µM; activity change, negative = inhibition: at the top concentration
Procedure, shortened: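 Primary human omental fibroblast/mesothelial 3D culture pre-formed 48 h. SKOV3ip1-GFP cells added with compounds (0.36-46 umol/L), incubated 2 h RT/16 h 37 C, fixed; GFP cells quantified at 488/509 nm.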

Activity change, negative = inhibition, inactive:
Cn1c(=O)oc2cc(S(=O)(=O)Nc3ccc(O)cc3)ccc21 -2.23%
O=C(C=Cc1c(C(=O)O)[nH]c2cc(Cl)cc(Cl)c12)Nc1ccccc1 -17.2%
CCc1ccc(NC(=O)CN(Cc2ccccc2)S(=O)(=O)c2ccc3nc(C)sc3c2)cc1 -1.77%
CCc1ccc(S(=O)(=O)c2nnn3c2nc(NCc2ccccc2OC)c2cc(Cl)ccc23)cc1 0.872%
Cc1ccc(C)c(N2CCN(C(=O)C(C)n3c(C)c4cnn(-c5ccccc5)c(=O)c4c3C)CC2)c1 (centres undefined) 77%
COc1ccc(Cl)cc1N(C)C(=O)C(=O)Nc1ccc2nc3n(c(=O)c2c1)CCCCC3 1.14%
COc1ccc(NC(=O)CSc2nc(-c3ccccc3)nc3c2Cc2c(CO)cnc(C)c2O3)cc1Cl 1.6%
Cc1ccc(N2CCN(C(=O)c3noc4c3COc3ccc(C)cc3-4)CC2)c(C)c1 -8.44%
Cc1ccccc1CSc1nc2cccnc2n1Cc1ccc(C(=O)NCCc2cccs2)cc1 -1.38%
COc1ccccc1C1C=C(c2ccc(Cl)cc2)Nc2nc(-c3ccc(Cl)cc3)nn21 (centres undefined) -2.91%
Cc1ccc2oc(=O)n(CCNC(=O)Nc3ccc(C)c(F)c3)c2c1 -1.26%
c1ccc(-c2nn3c(c2-c2ccnc4cc(OCCN5CCOCC5)ccc24)CCC3)nc1 23.4%
Cc1ccc(CNC(=O)c2c(-c3cccc(Br)c3)noc2C)o1 -16.8%
COC(=O)c1ccc(OCC2c3cc(OC)c(OC)cc3CCN2C(=O)c2ccccc2F)cc1 (centres undefined) 2.27%
Cc1ccc(C)c(Cn2nc(C)n3c(cc4cc(C)ccc43)c2=O)c1 -2.46%
CC(Nc1ccc(-c2nc(-c3ccccn3)no2)cc1[N+](=O)[O-])c1ccccc1 (centres undefined) -6.8%
COc1ccc(Nc2nc(N)nc(CSc3nc4cc(OC)ccc4s3)n2)cc1 9.86%
CC(C)c1nn2c(=O)cc(COC(=O)CNC(=O)c3ccccc3)nc2s1 132%
CCc1ccc(NC(=O)c2cc3c(=O)n(Cc4cccnc4)ccc3nc2C)cc1 1.94%
O=C(O)Cn1nnc(-c2cc(N3CCC(Oc4cc(F)ccc4Br)CC3)no2)n1 1.82%
CCc1ccc(NC(=O)C(=O)NCC(c2cccnc2)N2CCOCC2)cc1 (centres undefined) 3.89%
COc1ccc(OCC(=O)NCCS(=O)(=O)N2CCN(c3cccc(Cl)c3)CC2)cc1 -5.42%
O=C(Nc1cccc(Br)c1)c1cccc(S(=O)(=O)N2CCCCCC2)c1 -0.892%
CC(C)Oc1ccc(CNC(=O)c2ccc3nc(Cc4ccccc4)oc3c2)cc1 0.987%
Clc1ccc(C(c2ccccc2Cl)C(Cl)Cl)cc1 (centres undefined) -3.74%
CCOC(=O)c1c(C)sc(-c2c(-c3ccc(OC)c(F)c3)[nH]c3c2c(=O)[nH]c(=O)n3C)c1O -21.5%
Cc1cc(C)cc(OCC(=O)N(Cc2ccc(C)o2)C2CCS(=O)(=O)C2)c1 (centres undefined) -7.21%
Cc1ccc(-c2nn3c(=O)cc(CN4CCN(C(=O)Nc5cc(Cl)ccc5C)CC4)nc3s2)cc1 -1.07%
COc1ccc(Cl)cc1NC(=O)c1c(NCc2ccc(C)o2)sc2c1CCCC2 4.7%
COc1cccc(N(CC(=O)N2CCC(C)CC2)S(=O)(=O)c2ccc(C)cc2)c1 1.25%
COCCNC(=O)c1cc2c(Cl)nc3ccc(C)cc3c2s1 19.5%
C=C1C(=CC=C2CCCC3(C)[C@@H]([C@H](C)C=CC=CC(O)(CC)CC)CC[C@@H]23)C[C@@H](O)C[C@@H]1O (some centres undefined) 3.74%
CC(C)c1ccc(Nc2ncnc3c2c(-c2ccccc2)cn3-c2ccccc2)cc1 8.74%
COc1ccccc1CNC(=O)Cn1nc(C)c2nn(-c3ccc(Cl)cc3)c(C)c2c1=O -0.538%
C=CCc1c(C)nc2nc(SCC(=O)Nc3ccc(OCC)cc3)nn2c1C 4.86%
Cn1c(=O)c2c(-c3ccccc3Br)n(CCc3ccccc3)cc2n(C)c1=O 115%
CCCCOc1ccc(C2=NC(c3ccccc3)=Nc3ccc(OC)cc3N2)cc1 2.11%
CCc1ccc(NC(=O)CSc2nnc(-c3cc4occc4n3C)n2-c2ccccc2C)cc1 30.8%
COc1cccc(CNC(=O)Cn2ccc3cc(S(=O)(=O)N4CCC(C)CC4)ccc32)c1 -1.76%
Clc1cccc(-n2ncc3c(N4CCN(Cc5ccccc5)CC4)ncnc32)c1 -8.55%
COc1ccccc1NC(=O)CSc1nnc2c3ccccc3n(C)c2n1 0.123%
Cc1ccc(-n2nc(C)c3c(C(=O)Nc4ccc(Br)c(C)c4)cc(C)nc32)cc1 10.5%
Cc1cccc(C)c1OCC(=O)N[C@@H](Cc1ccccc1)[C@@H](O)C[C@H](Cc1ccccc1)NC(=O)[C@H](C(C)C)N1CCCNC1=O 1.24%
Cc1ccc(-c2nc3cccnc3s2)cc1NC(=O)Cc1ccccc1 -9.3%
CCOCCCn1c(=N)c(C(=O)NCC2CCCO2)cc2c(=O)n3cc(C)ccc3nc21 (centres undefined) -8.48%
COc1cccc(-c2nc(SCC(=O)N3CCc4ccccc43)c3c(=O)n(C)c(=O)n(C)c3n2)c1 6.01%
COc1ccc(CCC(=O)NCc2ccc3c(c2)CCN3C(=O)c2ccc(C)cc2)cc1 11.1%
COCCNC(=O)CSc1nc(-c2ccc(C)cc2)nc2c1c(=O)n(C)c(=O)n2C 2.07%
COc1ccccc1NC(=O)c1c(NC(=O)c2ccccc2Cl)sc2c1CCC2 -5.05%
c1ccc(CNc2nc(N3CCOc4ccccc43)nc3c2CCCC3)cc1 3.19%
CCOc1ccccc1CNC(=O)CN1C(=O)CCc2cc(S(=O)(=O)N3CCCCC3)ccc21 51.6%
CCOC(=O)c1c(-c2ccccc2)oc2ccc(NS(=O)(=O)c3ccc(C(C)C)cc3)cc12 0.469%
CCc1ccc(S(=O)(=O)c2nnn(-c3cccc(C)c3)c2N)cc1 11.7%
CCc1ccc(NC(=O)CCn2cnc3ccccc3c2=O)cc1 3.29%
Cn1c(=O)c(=O)n(C)c2cc(NC(=O)c3ccccc3Br)ccc21 3.67%
CCOc1ccc(CNC(=O)CCCn2c(=O)c3cccn3c3ccc(F)cc32)cc1 2.4%
CCc1ccccc1NC(=O)c1cnn2c(C(F)(F)F)cc(-c3ccc(OC)c(OC)c3)nc12 3.64%
COc1cc(OC)c(NC(=O)Cn2c(=O)cc(C(F)(F)F)c3c(C)nn(C)c32)cc1Cl -1.64%
COCCNC(=O)C(=O)Nc1c2c(nn1-c1ccccc1)CS(=O)(=O)C2 13.8%
COc1ccccc1CNc1nc(-c2ccco2)nn1S(=O)(=O)c1ccc(Cl)cc1 -3.1%
COc1cc(C(=O)Nc2ccc(-c3cc(C(F)(F)F)nn3-c3ccccc3)cc2)cc(OC)c1OC -10.9%
CCOc1ccc(CCNC(=O)Cn2nc(C)c3c(C)n(-c4ccccc4)nc3c2=O)cc1OCC -7.69%
CCOC(=O)c1c(C)sc(-c2c(-c3cc(C)ccc3C)[nH]c3c2c(=O)[nH]c(=O)n3C)c1O 0.0933%
Cc1cccc(NC(=O)Cn2nc(N3CCN(c4ccccc4)CC3)ccc2=O)c1C -4.02%
COc1ccccc1OCc1ccc(C(=O)Nc2ccc(C)c(C)c2)o1 -9.77%
Cc1ccccc1NC(=O)CN(C)S(=O)(=O)c1cccc2nsnc12 2.51%
COc1cccc(CNC(=O)CCC(=O)N2CC3CCCN3c3ccccc32)c1 (centres undefined) 3.06%
O=C(Nc1ccccc1C(=O)O)c1cccc(S(=O)(=O)N2CCCC2)c1 -22.2%
CCc1cccc(NC(=O)Cn2c(=O)n(CC3CCC(C(=O)NCCc4ccccc4)CC3)c(=O)c3ccccc32)c1 (centres undefined) 0.459%
Cc1ccc(C(=O)N2CCN(c3ccccc3F)CC2)cc1NC(=O)c1nsc2ccccc12 16.1%

outcome, inactive:
Cc1ccccc1-c1noc(-c2ccccc2OCC(=O)Nc2ccccc2[N+](=O)[O-])n1
Cc1ccc(CN(C(=O)COc2ccc(Br)cc2)c2ccccn2)o1
O=C(CSCc1cnn(-c2ccccc2)c1-n1cccc1)Nc1ccc(F)cc1F
Cc1cccc(C(=O)Nc2cccc(OCc3cc(=O)n4c(C)csc4n3)c2)c1
COC(=O)c1ccc(Cl)c(NC(=O)C2CCN(S(=O)(=O)Cc3ccccc3)CC2)c1
CCn1cc(C(=O)N(C)Cc2ccccc2)c(=O)c2cc(S(=O)(=O)N3CCCCCC3)ccc21
COc1ccc(-c2noc(CCC(=O)NCc3ccc(OC)cc3OC)n2)cc1
CCC(CC)C(=O)Nc1ccc2nc(SCC(=O)N3c4ccccc4CC3C)sc2c1 (centres undefined)
CCC(C)NC(=O)CSc1nc2cc3c(cc2c(=O)n1CCCC(=O)NCc1ccc2c(c1)OCO2)OCO3 (centres undefined)
COc1cc(OC)c(Nc2ncnc3onc(-c4cccc(Cl)c4)c23)cc1Cl
Cc1ccc(CN(Cc2ccco2)C(=O)c2oc3c(C)c(C)ccc3c2C)cc1
Cc1cc(C)cc(NC(=O)C2(c3cccs3)CCOCC2)c1
Clc1ccccc1Cc1cn2cc(-c3ccccc3)nc2s1
CC(C)COc1ccccc1C1CC(=O)Nc2cc3c(cc21)OCO3 (centres undefined)
COc1ccccc1Nc1ncnc2c1nc1n2CCCC1
COc1ccc(NC(=O)Cn2ccn(-c3ccccc3)c(=O)c2=O)cc1
COC(=O)C1=C(C)NC(=O)C1(NC(=O)c1ccccc1C)C(F)(F)F (centres undefined)
COc1ccc(CN2C(=O)C(NC(=O)c3ccccc3OC)(C(F)(F)F)N=C2c2ccccc2)cc1 (centres undefined)
CC(=O)N1CCc2c(sc3c2c(=O)n(Cc2ccccc2)c(=O)n3CC(=O)Nc2ccc(C)c(F)c2)C1
CCOC(=O)c1cnn(-c2cccc(F)c2)c1C1CCNCC1
CCOc1cc(C(=O)NCc2ccc3c(c2)CCN3C(=O)CC)cc(OCC)c1OCC
CCCCN(CC)CCCNC(=O)c1cn(C)c2ccc(S(=O)(=O)N(C)C3CCCCC3)cc2c1=O
O=C(NCc1ccc(F)cc1)C1CCN(C(=O)c2cnn(-c3ccccc3)c2-n2cccc2)CC1
COc1ccc(-c2[nH]ncc2C(=O)NCc2ccc(F)cc2)cc1
